Reference: patent US20220106389A1

B1: Fusion protein BY31.19 (Fc fusion)
chain: VIHVTKEVKEVATLSCGHNVSVEELAQTRIYWQKEKKMVLTMMSGDMNIWPEYKNRTIFDITNNLSIVILALRPSDEGTYECVVLKYEKDAFKREHLAEVTLSVKADFPTPSDKRV[human IgG4 Fc with S228P (EU numbers) left out here]
B2: Fusion protein BY24.5 (protein)
light: DIQMTQSPSSVSASIGDRVTITCRASQGIDNWLGWYQQKPGKAPKLLIYDASNLDTGVPSRFSGSGSGTYFTLTISSLQAEDFAVYFCQQAKAFPPTFGGGTKVEIKRTVAAPSVFIFPPSDEQLKSGTASVVCLLNNFYPREAKVQWKVDNALQSGNSQESVTEQDSKDSTYSLSSTLTLSKADYEKHKVYACEVTHQGLSSPVTKSFNRGEC
heavy: EVQLVQSGGGLVKPGGSLRLSCAASGFTFSSYSMNWVRQAPGKGLEWVSSISSSSSYIYYADSVKGRFTISRDNAKNSLYLQMNSLRAEDTAVYYCARVTDAFDIWGQGTLVTVSSASTKGPSVFPLAPCSRSTSESTAALGCLVKDYFPEPVTVSWNSGALTSGVHTFPAVLQSSGLYSLSSVVTVPSSSLGTKTYTCNVDHKPSNTKVDKRV[human IgG4 Fc with S228P (EU numbers) left out here]GGGSGGGGSGGGGSVIHVTKEVKEVATLSCGHNVSVEELAQTRIYWQKEKKMVLTMMSGDMNIWPEYKNRTIFDITNNLSIVILALRPSDEGTYECVVLKYEKDAFKREHLAEVTLSVKADFPTPS
B3: Fusion protein BY24.12 (Fc fusion)
chain: VIHVTKEVKEVATLSCGHNVSVEELAQTRIYWQKEKKMVLTMMSGDMNIWPEYKNRTIFDITNNLSIVILALRPSDEGTYECVVLKYEKDAFKREHLAEVTLSVKADFPTPSDKRV[human IgG4 Fc with S228P (EU numbers) left out here]GGGSGGGGSGGGGSASDTGRPFVEMYSEIPEIIHMTEGRELVIPCRVTSPNITVTLKKFPLDTLIPDGKRIIWDSRKGFIISNATYKEIGLLTCEATVNGHLYKTNYLTHRQTNTIIDVVLSPSHGIELSVGEKLVLNCTARTELNVGIDFNWEYPSSKHQHKKLVNRDLKTQSGSEMKKFLSTLTIDGVTRSDQGLYTCAASSGLMTKKNSTFVRVHE

Biological target: Recombinant human CD28 (human) (UniProt P10747)
Assay: ELISA, plate coated with recombinant human CD28, anti-human HRP detection

Row | Binder | EC50
1 | B1 | 24.3 µg/mL
2 | B2 | 35.1 µg/mL
3 | B3 | 13.2 µg/mL
